# Test results reported in PubChem BioAssay AID485344 (National Center for Advancing Translational Sciences (NCATS), 2010).
# Screen size: about 340,000 compounds; about 6,900 (2%) were called active. No stated cut-off is given here; in the data, active means inhibition above about 30%; inactive means below that, where a call was filed. The entries are a selection whose mix differs from that of the whole data set. Entries without a call were filed so in the source.
# Biological target: D(2) dopamine receptor (Homo sapiens) (UniProt P14416)
# Experiment: HTS Assay for Allosteric Antagonists of the Human D2 Dopamine Receptor: Primary Screen for Antagonists; further: 0% is about no effect
# Conditions: HEK293 TREx D2 cells, calcium flux, dopamine EC80; at 10 µM; stronger effect = higher value
# Summary of the method: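 Dopamine at EC80 is the agonist stimulus; test compounds precede it by 180 s. Calcium flux read kinetically in a force-coupled, inducible HEK293 T-REx D2 cell line.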
# Sequence of UniProt P14416 (P14416 whole entry, looked up): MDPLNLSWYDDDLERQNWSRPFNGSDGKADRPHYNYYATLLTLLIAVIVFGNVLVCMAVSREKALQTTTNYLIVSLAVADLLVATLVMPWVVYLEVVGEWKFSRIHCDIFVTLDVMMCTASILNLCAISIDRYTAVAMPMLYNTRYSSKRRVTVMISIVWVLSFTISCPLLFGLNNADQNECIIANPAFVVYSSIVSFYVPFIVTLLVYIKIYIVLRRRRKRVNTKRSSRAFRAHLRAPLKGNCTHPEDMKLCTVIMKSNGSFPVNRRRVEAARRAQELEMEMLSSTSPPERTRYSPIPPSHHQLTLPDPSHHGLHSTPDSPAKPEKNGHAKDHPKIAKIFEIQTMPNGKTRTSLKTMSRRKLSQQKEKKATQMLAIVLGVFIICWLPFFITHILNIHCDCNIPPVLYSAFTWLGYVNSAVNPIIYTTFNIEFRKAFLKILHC
row,Compound,inhibition
1,CC(C)(C)OC(=O)N1CCC(c2c(C(=O)NCCN3CCC(Cc4ccccc4)CC3)cnn2-c2ccccc2)CC1,5.12%
2,COc1cccc(C2=NOC(C(=O)Nc3ccc4c(c3)OCO4)C2)c1OC (stereo not given),active: 59.8%
3,COCCCNc1ncnc2c1cnn2-c1ccc(F)cc1,10.9%
4,COc1cc2ccccc2cc1C(=O)Nc1ccc2oc(-c3cccc(Cl)c3Cl)nc2c1,2.31%
5,COc1ccc(C2CC(=O)Nc3c2c(=O)[nH]c2nc4ccccc4n32)cc1OC (stereo not given),9.76%
6,Cc1ccc2oc3c(c(=O)c2c1)C(c1ccc(F)cc1)N(c1nc(C)c(C)s1)C3=O (stereo not given),-11.5%
7,COCCNC(=O)C(=O)NCC(c1cccnc1)N1CCN(c2ccccc2F)CC1 (stereo not given),-2.16%
8,COc1ccccc1Nc1nc2ccc(Cl)cc2nc1-n1nc(C)cc1C,-6.59%
9,CCOC(=O)c1ccc(NC(=O)CC2C(=O)N(c3ccc(F)cc3)C(=O)N2Cc2ccc3c(c2)OCO3)cc1 (stereo not given),11.8%
10,CCOC(=O)c1cccc(NC(=O)C2CCN(S(=O)(=O)c3cn(C)cn3)CC2)c1,-2.45%
11,Cc1ccc(C)c(NS(=O)(=O)c2cc3c(cc2Cl)NC(=O)CO3)c1,14.7%
12,COc1ccc(N2CCN(C3=NS(=O)(=O)C(c4cccc(Br)c4)=C3C)CC2)cc1,26.6%
13,CCOC(=O)c1ccc(NC(=O)CCc2c(C)nc3nc[nH]n3c2=O)cc1,4.79%
14,Cc1cc(C)c(NC(=O)CCc2c(C)nc3c(c(C)nn3C(C)(C)C)c2C)c(C)c1,26.4%
15,COc1ccc(C2=NN(CC(=O)NCCCN(C)c3ccccc3)C(=O)CC2)cc1,-13.9%
16,COC(=O)c1cc2sc(C)cc2n1Cc1ccc(Br)cc1F,-2.16%
17,CCOc1ccccc1N1CCN(C(=O)c2ccc(-c3ccc(OC(C)=O)cc3)cc2)CC1,active: 30.7%
18,Cc1ccccc1Nc1c(-c2ccc(N3CCOCC3)cc2)nc2ncccn12,3.06%
19,COc1ccc(CN2COc3ccc4c(oc(=O)c5ccccc54)c3C2)cc1OC,2.65%
20,O=C(Nc1ccccc1-c1nc2ccccc2s1)c1cc(Cl)cc(Cl)c1,8.11%

row,Compound,inhibition
1,O=C(c1ccccc1Cl)n1nc(-c2cccnc2)nc1NCc1ccc(F)cc1,-0.446%
2,COC(=O)c1scc(-c2ccccc2)c1S(=O)(=O)Nc1cccc(C)c1C,12%
3,CCCCOc1ccc(C(=O)N(Cc2ccc(C(C)C)cc2)C2CCS(=O)(=O)C2)cc1 (stereo not given),-6.58%
4,COCCCNC(=O)c1sc2nc(C)c(C(=O)Nc3ccc(C)cc3C)c(-c3ccc(Cl)cc3)c2c1N,9.01%
5,Cc1c(Cl)cccc1NC(=O)c1ccc(C(=O)Nc2cccc(Cl)c2C)cc1,-1.47%
6,CC(=O)Nc1ccc(S(=O)(=O)N2CCC(Oc3ccc(-n4cnnn4)cc3)CC2)cc1,-12.9%
7,CCOc1ccccc1N1CCN(Cc2c(C)n(C)n(-c3ccccc3)c2=O)CC1,active: 84.6%
8,CC(=O)N1CCc2c(sc3c2c(=O)n(-c2ccccc2C)c(=O)n3Cc2cccc(F)c2)C1,-14.1%
9,CC1CCN(C(=O)c2cnn(-c3cccc(Cl)c3)c2C2CCN(C(=O)OC(C)(C)C)CC2)CC1,-5.7%
10,COc1ccc(OCC(=O)NCC(c2ccc(Cl)cc2)N2CCCCC2)cc1 (stereo not given),8.79%
11,COc1ccc(NC(=O)c2c(-c3ccccc3)c(-c3ccccc3)nn(C)c2=O)c(OC)c1,-7.76%
12,CC(=O)N1c2ccccc2C(=O)C1N1CCN(c2ccccc2)CC1 (stereo not given),-1.11%
13,Cc1ccc2c(=O)cc(CSc3nnc(-c4ccccc4)n3C)[nH]c2c1C,2.67%
14,Cc1cc(-c2nc3ncccc3o2)ccc1NC(=O)c1ccc(Br)cc1,-10.7%
15,Cc1cc(C)c(NC(=O)c2cc3c(=O)n4ccccc4nc3n2C)c(C)c1,25.2%
16,Cc1ccc(S(=O)(=O)N(C)C)cc1NC(=S)N1CCCCC1CO (stereo not given),active: 39%
17,CCOC(=O)Cn1c(=O)n(C2CCCCC2)c2nc(-c3ccc(Cl)cc3)nc(C(N)=O)c21,11.6%
18,COc1cccc(-n2cc(C(=O)NCc3cccc(Cl)c3)c3ccccc3c2=O)c1,-20.7%
19,COc1ccc(S(=O)(=O)Nc2cc3c(cc2NCc2ccccc2)n(C)c(=O)n3C)cc1OC,9.21%
20,CCOc1ccc(C(=O)Nc2ccc3nc(SCc4ccccc4)sc3c2)cc1,3.21%

row,Compound,inhibition
1,Cc1nc2c(-c3ccc(F)cc3)c(C)nn2c(C)c1CCC(=O)NCc1ccc(Cl)cc1,-7.38%
2,N#Cc1cc(S(=O)(=O)c2ccccc2)c(N)[nH]c1=O,active: 85.6%
3,Cc1ccc(NC(=O)CSc2nc3c([nH]c4ccccc43)c(=O)n2-c2ccccc2)c(C)c1,-9.78%
4,Cc1cccc(NS(=O)(=O)c2ccc3c(c2)CCN3C(=O)CCC(=O)O)c1C,26.9%
5,CCN(c1ccccc1)S(=O)(=O)c1ccc(NC(=O)c2cc(=O)c3cc(C)c(C)cc3o2)cc1,5.59%
6,COc1cccc(CNC(=O)CCCN2C(=O)CSc3c2c(C)nn3-c2ccccc2)c1,10.2%
7,O=c1c2ccccc2n(Cc2cccc(F)c2)c(=O)n1Cc1ccccc1Cl,-10.7%
8,CCn1cc(C(=O)N2CCN(c3cc(C)ccc3C)CC2)c(=O)c2cc(S(=O)(=O)N(C)C3CCCCC3)ccc21,3.77%
9,Cc1cccc(Nc2c3c(nc4nncn24)CCC3)c1,7.48%
10,COc1ccc(-c2ccc3c(N)c(C(=O)Nc4cc(F)ccc4C)sc3n2)cc1,8.74%
11,COCCN(C(=O)CCC(=O)Nc1cc(C)on1)C(C(=O)NC(C)(C)C)c1ccccc1Cl (stereo not given),active: 45.3%
12,Cc1ccc(-c2cc(C(=O)NCCc3ccccc3)c3c(-c4ccc(C)cc4)[nH]nc3n2)cc1,13.4%
13,CC1CC1c1ccc(/C=C(\C#N)C(=O)Nc2ccc(Cl)cc2)o1 (stereo not given),active: 75.7%
14,CCOc1ccc(N2C(=O)N(Cc3ccc(C)cc3C)c3ccccc3S2(=O)=O)cc1,-0.698%
15,CN1CCN(c2nc3c(S(=O)(=O)c4ccc(Br)cc4)nnn3c3ccsc23)CC1,10.7%
16,CCCCc1nc(N2CCN(C(=O)c3ccco3)CC2)c(C#N)c2c1CCCC2,active: 30.9%
17,Oc1ccc(Cl)cc1C1=Nc2ccccc2N=C(c2cccc(Br)c2)C1,-0.974%
18,CCc1sc(Nc2cccc(Cl)c2C)nc1-c1cc2cccc(OC)c2oc1=O,10.6%
19,COc1ccc(OC)c(NC(=O)c2cc(CN3CCCC3)on2)c1,-18.6%
20,COc1ccc(C(=O)NNC(=S)NC(=O)C(C)(C)C)cc1,active: 61.9%
